Results as given in the supplement of paper PMC12230231.

What follows are sequences tested on SIVsab (simian immunodeficiency virus of sabaeus monkeys), single-cycle GFP reporter, in CRFK cells (assay: enrichment among uninfected cells over input (fold); higher = stronger restriction). Conditions: library: human / rhesus combinations.
Experimental: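 Pools of CRFK cells expressing variants of the TRIM5α v1 loop were challenged with the single-cycle reporter, sorted by GFP and sequenced; mean of two replicates.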

Row | Sequence | enrichment
1 | MASGILVNVKEEVTCPICLELLTQPLSLDCGHSFCQACLTANHKKSMLDKGESSCPVCRISYQPENIRPNRHVANIVEKLREVKLSPEGQKVDHCARHGEKLLLFCQEDGKVICWLCERSQEHRGHHTFLTEEVAREYQVKLQAALEMLRQKQQEAEELEADIREEKASWKTQIQYDKTNVLADFEQLRDILDWEESNELQNLEKEEEDILKSLTNSETEMVQQTQSLRELISDLEHRLQGSVMELLQGVDGVIKRTENVTLKKPETFPKNQRRVFRAPDLKGMLEVFRELTDVRRYWVDVTVAPNNISCAVISEDKRQVSSPKPQIIYQARGTRYTFQSLTNFNYCTGILGSQSITSGKHYWEVDVSKKTAWILGVCAGFQPDAMCNIEKNENYQPKYGYWVIGLEEGVKCSAFQDSSFHTPSVPFIVPLSVIICPDRVGVFLDYEACTVSFFNITNHGFLIYKFSHCSFSQPVFPYLNPRKCGVPMTLCSPSS [human TRIM5α, 330-340 = QARGTRYTFQSLT] | 0.0806 ± 0.051
2 | MASGILVNVKEEVTCPICLELLTQPLSLDCGHSFCQACLTANHKKSMLDKGESSCPVCRISYQPENIRPNRHVANIVEKLREVKLSPEGQKVDHCARHGEKLLLFCQEDGKVICWLCERSQEHRGHHTFLTEEVAREYQVKLQAALEMLRQKQQEAEELEADIREEKASWKTQIQYDKTNVLADFEQLRDILDWEESNELQNLEKEEEDILKSLTNSETEMVQQTQSLRELISDLEHRLQGSVMELLQGVDGVIKRTENVTLKKPETFPKNQRRVFRAPDLKGMLEVFRELTDVRRYWVDVTVAPNNISCAVISEDKRQVSSPKPQIIYGAPGTRYQSLTNFNYCTGILGSQSITSGKHYWEVDVSKKTAWILGVCAGFQPDAMCNIEKNENYQPKYGYWVIGLEEGVKCSAFQDSSFHTPSVPFIVPLSVIICPDRVGVFLDYEACTVSFFNITNHGFLIYKFSHCSFSQPVFPYLNPRKCGVPMTLCSPSS [human TRIM5α, 330-340 = GAPGTRYQSLT] | 0.00204 ± 0.00062
3 | MASGILVNVKEEVTCPICLELLTQPLSLDCGHSFCQACLTANHKKSMLDKGESSCPVCRISYQPENIRPNRHVANIVEKLREVKLSPEGQKVDHCARHGEKLLLFCQEDGKVICWLCERSQEHRGHHTFLTEEVAREYQVKLQAALEMLRQKQQEAEELEADIREEKASWKTQIQYDKTNVLADFEQLRDILDWEESNELQNLEKEEEDILKSLTNSETEMVQQTQSLRELISDLEHRLQGSVMELLQGVDGVIKRTENVTLKKPETFPKNQRRVFRAPDLKGMLEVFRELTDVRRYWVDVTVAPNNISCAVISEDKRQVSSPKPQIIYGAPGTRYTFPSFTNFNYCTGILGSQSITSGKHYWEVDVSKKTAWILGVCAGFQPDAMCNIEKNENYQPKYGYWVIGLEEGVKCSAFQDSSFHTPSVPFIVPLSVIICPDRVGVFLDYEACTVSFFNITNHGFLIYKFSHCSFSQPVFPYLNPRKCGVPMTLCSPSS [human TRIM5α, 330-340 = GAPGTRYTFPSFT] | 0.104 ± 0.098

Same assay, conditions: library: insertions and deletions

Row | Sequence | enrichment
4 | MASGILVNVKEEVTCPICLELLTQPLSLDCGHSFCQACLTANHKKSMLDKGESSCPVCRISYQPENIRPNRHVANIVEKLREVKLSPEGQKVDHCARHGEKLLLFCQEDGKVICWLCERSQEHRGHHTFLTEEVAREYQVKLQAALEMLRQKQQEAEELEADIREEKASWKTQIQYDKTNVLADFEQLRDILDWEESNELQNLEKEEEDILKSLTNSETEMVQQTQSLRELISDLEHRLQGSVMELLQGVDGVIKRTENVTLKKPETFPKNQRRVFRAPDLKGMLEVFRELTDVRRYWVDVTVAPNNISCAVISEDKRQVSSPKPQIIYGARGTRYQTFVNFYQTFVNFNYCTGILGSQSITSGKHYWEVDVSKKTAWILGVCAGFQPDAMCNIEKNENYQPKYGYWVIGLEEGVKCSAFQDSSFHTPSVPFIVPLSVIICPDRVGVFLDYEACTVSFFNITNHGFLIYKFSHCSFSQPVFPYLNPRKCGVPMTLCSPSS [human TRIM5α, 7-codon duplication at 336] | 3.15 ± 2.7
5 | MASGILVNVKEEVTCPICLELLTQPLSLDCGHSFCQACLTANHKKSMLDKGESSCPVCRISYQPENIRPNRHVANIVEKLREVKLSPEGQKVDHCARHGEKLLLFCQEDGKVICWLCERSQEHRGHHTFLTEEVAREYQVKLQAALEMLRQKQQEAEELEADIREEKASWKTQIQYDKTNVLADFEQLRDILDWEESNELQNLEKEEEDILKSLTNSETEMVQQTQSLRELISDLEHRLQGSVMELLQGVDGVIKRTENVTLKKPETFPKNQRRVFRAPDLKGMLEVFRELTDVRRYWVDVTVAPNNISCAVISEDKRQVSSPKPQIIYGAGARGTRYQTFVNFNYCTGILGSQSITSGKHYWEVDVSKKTAWILGVCAGFQPDAMCNIEKNENYQPKYGYWVIGLEEGVKCSAFQDSSFHTPSVPFIVPLSVIICPDRVGVFLDYEACTVSFFNITNHGFLIYKFSHCSFSQPVFPYLNPRKCGVPMTLCSPSS [human TRIM5α, 2-codon duplication at 330] | 0.369 ± 0.12
6 | MASGILVNVKEEVTCPICLELLTQPLSLDCGHSFCQACLTANHKKSMLDKGESSCPVCRISYQPENIRPNRHVANIVEKLREVKLSPEGQKVDHCARHGEKLLLFCQEDGKVICWLCERSQEHRGHHTFLTEEVAREYQVKLQAALEMLRQKQQEAEELEADIREEKASWKTQIQYDKTNVLADFEQLRDILDWEESNELQNLEKEEEDILKSLTNSETEMVQQTQSLRELISDLEHRLQGSVMELLQGVDGVIKRTENVTLKKPETFPKNQRRVFRAPDLKGMLEVFRELTDVRRYWVDVTVAPNNISCAVISEDKRQVSSPKPQIIYGTRYQTFVNFNYCTGILGSQSITSGKHYWEVDVSKKTAWILGVCAGFQPDAMCNIEKNENYQPKYGYWVIGLEEGVKCSAFQDSSFHTPSVPFIVPLSVIICPDRVGVFLDYEACTVSFFNITNHGFLIYKFSHCSFSQPVFPYLNPRKCGVPMTLCSPSS [human TRIM5α, 3-codon deletion at 331] | 0.559 ± 0.052
7 | MASGILVNVKEEVTCPICLELLTQPLSLDCGHSFCQACLTANHKKSMLDKGESSCPVCRISYQPENIRPNRHVANIVEKLREVKLSPEGQKVDHCARHGEKLLLFCQEDGKVICWLCERSQEHRGHHTFLTEEVAREYQVKLQAALEMLRQKQQEAEELEADIREEKASWKTQIQYDKTNVLADFEQLRDILDWEESNELQNLEKEEEDILKSLTNSETEMVQQTQSLRELISDLEHRLQGSVMELLQGVDGVIKRTENVTLKKPETFPKNQRRVFRAPDLKGMLEVFRELTDVRRYWVDVTVAPNNISCAVISEDKRQVSSPKPQIIYGARGTRYQTFVNFNYCTFNYCTGILGSQSITSGKHYWEVDVSKKTAWILGVCAGFQPDAMCNIEKNENYQPKYGYWVIGLEEGVKCSAFQDSSFHTPSVPFIVPLSVIICPDRVGVFLDYEACTVSFFNITNHGFLIYKFSHCSFSQPVFPYLNPRKCGVPMTLCSPSS [human TRIM5α, 5-codon duplication at 342] | 0.287 ± 0.049
8 | MASGILVNVKEEVTCPICLELLTQPLSLDCGHSFCQACLTANHKKSMLDKGESSCPVCRISYQPENIRPNRHVANIVEKLREVKLSPEGQKVDHCARHGEKLLLFCQEDGKVICWLCERSQEHRGHHTFLTEEVAREYQVKLQAALEMLRQKQQEAEELEADIREEKASWKTQIQYDKTNVLADFEQLRDILDWEESNELQNLEKEEEDILKSLTNSETEMVQQTQSLRELISDLEHRLQGSVMELLQGVDGVIKRTENVTLKKPETFPKNQRRVFRAPDLKGMLEVFRELTDVRRYWVDVTVAPNNISCAVISEDKRQVSSPKPQIIYGARGTRYQTFVNFNYGILGSQSITSGKHYWEVDVSKKTAWILGVCAGFQPDAMCNIEKNENYQPKYGYWVIGLEEGVKCSAFQDSSFHTPSVPFIVPLSVIICPDRVGVFLDYEACTVSFFNITNHGFLIYKFSHCSFSQPVFPYLNPRKCGVPMTLCSPSS [human TRIM5α, 2-codon deletion at 345] | 0.427 ± 0.28
9 | MASGILVNVKEEVTCPICLELLTQPLSLDCGHSFCQACLTANHKKSMLDKGESSCPVCRISYQPENIRPNRHVANIVEKLREVKLSPEGQKVDHCARHGEKLLLFCQEDGKVICWLCERSQEHRGHHTFLTEEVAREYQVKLQAALEMLRQKQQEAEELEADIREEKASWKTQIQYDKTNVLADFEQLRDILDWEESNELQNLEKEEEDILKSLTNSETEMVQQTQSLRELISDLEHRLQGSVMELLQGVDGVIKRTENVTLKKPETFPKNQRRVFRAPDLKGMLEVFRELTDVRRYWVDVTVAPNNISCAVISEDKRQVSSPKPQIIYGARGTRYQTFVNFRYQTFVNFNYCTGILGSQSITSGKHYWEVDVSKKTAWILGVCAGFQPDAMCNIEKNENYQPKYGYWVIGLEEGVKCSAFQDSSFHTPSVPFIVPLSVIICPDRVGVFLDYEACTVSFFNITNHGFLIYKFSHCSFSQPVFPYLNPRKCGVPMTLCSPSS [human TRIM5α, 8-codon duplication at 335] | 0.547 ± 0.16
10 | MASGILVNVKEEVTCPICLELLTQPLSLDCGHSFCQACLTANHKKSMLDKGESSCPVCRISYQPENIRPNRHVANIVEKLREVKLSPEGQKVDHCARHGEKLLLFCQEDGKVICWLCERSQEHRGHHTFLTEEVAREYQVKLQAALEMLRQKQQEAEELEADIREEKASWKTQIQYDKTNVLADFEQLRDILDWEESNELQNLEKEEEDILKSLTNSETEMVQQTQSLRELISDLEHRLQGSVMELLQGVDGVIKRTENVTLKKPETFPKNQRRVFRAPDLKGMLEVFRELTDVRRYWVDVTVAPNNISCAVISEDKRQVSSPKPQIIYGARGTRCTGILGSQSITSGKHYWEVDVSKKTAWILGVCAGFQPDAMCNIEKNENYQPKYGYWVIGLEEGVKCSAFQDSSFHTPSVPFIVPLSVIICPDRVGVFLDYEACTVSFFNITNHGFLIYKFSHCSFSQPVFPYLNPRKCGVPMTLCSPSS [human TRIM5α, 9-codon deletion at 336] | 1.56 ± 1.3
11 | MASGILVNVKEEVTCPICLELLTQPLSLDCGHSFCQACLTANHKKSMLDKGESSCPVCRISYQPENIRPNRHVANIVEKLREVKLSPEGQKVDHCARHGEKLLLFCQEDGKVICWLCERSQEHRGHHTFLTEEVAREYQVKLQAALEMLRQKQQEAEELEADIREEKASWKTQIQYDKTNVLADFEQLRDILDWEESNELQNLEKEEEDILKSLTNSETEMVQQTQSLRELISDLEHRLQGSVMELLQGVDGVIKRTENVTLKKPETFPKNQRRVFRAPDLKGMLEVFRELTDVRRYWVDVTVAPNNISCAVISEDKRQVSSPKPQIIYGARGTRYQTFVNFNCTGILGSQSITSGKHYWEVDVSKKTAWILGVCAGFQPDAMCNIEKNENYQPKYGYWVIGLEEGVKCSAFQDSSFHTPSVPFIVPLSVIICPDRVGVFLDYEACTVSFFNITNHGFLIYKFSHCSFSQPVFPYLNPRKCGVPMTLCSPSS [human TRIM5α, 1-codon deletion at 344] | 0.613 ± 0.036
12 | MASGILVNVKEEVTCPICLELLTQPLSLDCGHSFCQACLTANHKKSMLDKGESSCPVCRISYQPENIRPNRHVANIVEKLREVKLSPEGQKVDHCARHGEKLLLFCQEDGKVICWLCERSQEHRGHHTFLTEEVAREYQVKLQAALEMLRQKQQEAEELEADIREEKASWKTQIQYDKTNVLADFEQLRDILDWEESNELQNLEKEEEDILKSLTNSETEMVQQTQSLRELISDLEHRLQGSVMELLQGVDGVIKRTENVTLKKPETFPKNQRRVFRAPDLKGMLEVFRELTDVRRYWVDVTVAPNNISCAVISEDKRQVSSPKPQIIYGARGTRYQTFVNFYCTGILGSQSITSGKHYWEVDVSKKTAWILGVCAGFQPDAMCNIEKNENYQPKYGYWVIGLEEGVKCSAFQDSSFHTPSVPFIVPLSVIICPDRVGVFLDYEACTVSFFNITNHGFLIYKFSHCSFSQPVFPYLNPRKCGVPMTLCSPSS [human TRIM5α, 1-codon deletion at 343] | 0.569 ± 0.06

± gives the standard deviation of the averaged measurements. Restriction of a single-cycle SIVsab GFP reporter by TRIM5α v1-loop variants in CRFK cells. Human variants: read share among cells still uninfected after two challenges over input, higher = gained restriction. Rhesus variants: share among infected cells over input, higher = lost restriction. Reporter dose not given per row. No active / inactive call per row; the paper calls a change when both replicates lie above its controls (mean + 2 SD of stop or wild-type variants, or the top frameshift score). Residues outside the varied loop are taken from Swiss-Prot. The paper reads the human single-substitution scores as noise; they and the rhesus combinations repeat poorly (rank correlation 0.3 to 0.4), indel scores repeat only for the top variants, rhesus substitutions well (0.9).
